Source: ChEMBL document CHEMBL4888484, “Replenishing the malaria drug discovery pipeline: Screening and hit evaluation of the MMV Hit Generation Library 1 (HGL1) against asexual blood stage Plasmodium falciparum ,using a nano luciferase reporter read-out” (2022)
In all, about 150,000 compounds went through this assay and about 540 (0.36%) showed an effect of 50% or more. Some of the results follow.

test system: Plasmodium falciparum; assay: Primary screen in NF54 nanoGlo assay, in single point, at 2uM, 72h; a lower Z score goes with more inhibition; format: functional, Erythrocyte; details: timepoint 72 hour

Row | SMILES | % Inhibition [%] | Z score
1 | CCN1CCCCc2cc(C(=O)NCC(N)=O)sc21 | 28 | -3.78
2 | Cc1cc(Cl)cc2cc(-c3noc(-c4cn(C[C@H]5CCOC5)nn4)n3)oc12 | -17 | 2.12
3 | C[C@H]1CCOCCN1C(=O)c1ocnc1-c1ccccc1 | 3 | -0.54
4 | CC(C)[C@@H](C(=O)NCCCN(C)C)S(=O)(=O)C1CCCCC1 | -15 | 2.81
5 | CCCN1CCN(CCC(=O)Nc2cccnc2)CC1=O | -12 | 1.98
6 | Cn1cccc1C(=O)N1CCCC[C@H]1c1nnc(-c2cnccn2)[nH]1 | 1 | -0.1
7 | C[C@@H](C#N)N1CCC(Cn2cc(Br)cn2)CC1 | -8 | 1.12
8 | CCn1c(=O)c(-c2ccc3ccccc3n2)cc2cc(Cl)ccc21 | 13 | -1.78
9 | Cc1cc(C(=O)NCc2csc(N)n2)cnc1C | -21 | 2.28
10 | Cc1oc2ccc(OCc3ccccc3)cc2c1C(=O)N1[C@@H]2CC[C@H]1C[C@@H](O)C2 | -4 | 0.76
11 | COCCNc1cc(-c2noc([C@@H]3CCCN3C3CCN(C)CC3)n2)ccn1 | 31 | -3.52
12 | COc1ccc(-c2cc(C)ccc2N2CCOC2=O)cc1F | -5 | 0.92
13 | CCN1CC[C@@]2(CCC1=O)CN(C(=O)Nc1ccc(F)c(F)c1)CCN2C | -4 | 0.72
14 | CC(C)(CN)Cc1ccc(C(F)(F)F)cc1 | 2 | -0.24
15 | CCOc1cccc(CC(=O)NCc2ccc3c(c2)CCN3C(C)=O)c1OCC | 8 | -1.49
16 | Cc1csc([C@H](C)NC(=O)N2CCN(c3cccs3)CC2)n1 | 34 | -3.8
17 | O=C(NCc1cccc(C(F)(F)F)c1)[C@H]1CCCN(c2ncnc3nn(-c4ccc(F)cc4)cc23)C1 | -13 | 1.16
18 | CCCn1ncc(CN2CCN(C(=O)c3ccccc3)CC2)c1C | -9 | 1.69
19 | COCCc1noc(C2CCCCCC2)n1 | -3 | 0.59
20 | Cn1c(=O)cc(N2CC(Cc3ccccc3C(F)(F)F)C2)[nH]c1=O | 0 | 0.1
21 | CC1(CC(F)(F)F)CN(C(=O)[C@H]2CCc3nccn3C2)C1 | 24 | -3.01
22 | CCc1ncnc(N2CC(C)(C)[C@H]2c2ccncc2)c1F | -4 | 0.49

Row | SMILES | % Inhibition [%] | Z score
23 | Cc1cc(C(=O)Nc2cccc(F)c2)cc2c1N(C)S(=O)(=O)c1ccccc1-2 | 5 | -0.58
24 | O=C(Nc1cc(-c2cccc(Cl)c2)no1)C1CCN(c2ncnc3c2nc2n3CCCCC2)CC1 | -13 | 2.11
25 | Cc1cc(CC(=O)Nc2cc(C3CCC3)nn2C)no1 | -6 | 0.71
26 | Cc1nc(C)c(C(=O)N2CC(Cc3nncn3CC3CC3)C2)s1 | 3 | -0.4
27 | Clc1ccc(-c2noc(-c3ccc(N4CCC5(CC4)OCCO5)nn3)n2)cc1 | 11 | -1.91
28 | Cc1c(O)cccc1C(=O)N1CCC[C@H](c2nccn2C(C)C)C1 | -18 | 1.89
29 | Cc1cc(C)n(C[C@H](C)NC2(Cc3ccccc3)CC2)n1 | -6 | 0.76
30 | Cc1ccc(NC(=O)Cn2cc(S(=O)(=O)N3CCCCC3)ccc2=O)c(C)c1 | -7 | 1.38
31 | CCNC(=O)N1CC(Oc2cccc(C(F)(F)F)n2)C1 | -11 | 2.03
32 | CCCc1cc(N2CCC3(CC2)CNC(=O)c2ccccc2O3)n2ncnc2n1 | 17 | -2.29
33 | O=C(COc1ccc2ccccc2c1)Nc1cccc(S(=O)(=O)N2CCCC2)c1 | -9 | 1.7
34 | CCOC1CC(CO)(NC(=O)c2c(Cl)c3ccccc3n2C)C1(C)C (stereo not given) | 31 | -3.55
35 | Cc1cc(C)n(Cc2cc(C(=O)N(C)CCc3ccccn3)n[nH]2)n1 | 15 | -2.02
36 | Cc1cc(NCCc2cccs2)c2nncn2n1 | -26 | 2.43
37 | CCC(=O)N1CCC(NCc2cnc(C(C)(C)C)s2)C(CC)C1 (stereo not given) | -7 | 0.82
38 | COc1cc2nc(C)sc2cc1NC(=O)NCc1cccnc1 | -8 | 1.53
39 | Cc1cc(NC(=O)NCCCOCC2CC2)n(Cc2ccccn2)n1 | -3 | 0.27
40 | CC(C)NC(=O)N(CCN1CCOCC1)CC(=O)N1CCCN(c2ccc(-c3ccccc3)nn2)CC1 | -8 | 0.94
41 | CC(C)n1ccnc1CN[C@@H](C)c1cccc(-n2cccn2)c1 | -10 | 1.31
42 | Cc1nc(CO[C@H]2CCN(C(=O)c3ccc(-n4cnnn4)cc3)C2)cs1 | -4 | 0.67
43 | Cc1ccc(-c2nnc(NC(=O)c3cc4c(s3)CCOC4)[nH]2)s1 | 0 | 0.03
44 | C[C@H]1CCCCN1CCN(C)Cc1nnc(C2CC2)o1 | 0 | 0.08

Row | SMILES | % Inhibition [%] | Z score
45 | CCN(CC)S(=O)(=O)NC(=O)c1ccc(C)c(C)c1 | -4 | 0.67
46 | CCn1ccc2ccc(CCC(=O)Nc3ccc(NC(C)=O)cc3)cc21 | -12 | 1.42
47 | CC(C)(C)c1ccc(=O)n(CN(C2CCCCC2)C2CC2)n1 | -8 | 0.79
48 | CCn1c(C(=O)NCCN2CCOCC2)cc2cc(NS(=O)(=O)c3ccc(Cl)cc3)ccc21 | -1 | 0.19
49 | Cc1cc(S(=O)(=O)N[C@H]2CC[C@@H](CC(=O)O)C2)sc1C | -2 | 0.32
50 | Cc1c(N2CCOCC2)c(C)n(Cc2ccccc2F)c1C(=O)NC(C)C | -2 | 0.31
51 | CCc1nc2c(=O)n(CC(=O)NCC3CCCCC3)nc(C)c2s1 | 0 | 0.06
52 | CCOC(=O)c1cc(S(=O)(=O)N2CCC[C@H]2C(=O)Nc2cccc(C)c2C)cn1C | -6 | 1.17
53 | O=C(OCc1nc(-c2ccccc2)cs1)C1CCCC1 | 2 | -0.26
54 | CCOCc1cc(CN2CCC[C@H](CCC(=O)N(C)C3CCN(C)CC3)C2)ccc1OC | -10 | 1.27
55 | O=C(Cc1cccc(O)c1)Nc1cc(C2CCCC2)[nH]n1 | -25 | 2.32
56 | Cn1cc(NC(=O)C2=NN(c3ccccc3)[C@H](C(N)=O)C2)cn1 | -6 | 0.72
57 | CCOC(=O)Cn1nc(C)c(NC(=O)c2ccncc2)c1C | 0 | -0.05
58 | CC(C)(CNC(=O)N1CCC[C@]2(CNC(=O)C2)C1)C1CCC1 | -1 | 0.19
59 | COc1ccccc1Oc1ncnc(-c2ccccc2C)c1N | 5 | -0.94
60 | COc1ccc2nc(C)c(C(=O)N3CCOC[C@@H]3CC(C)C)n2n1 | -11 | 1.52
61 | O=C1NCCc2c1[nH]c1c(Cl)ccc(Cl)c21 | -14 | 2.19
62 | O=C(NCc1nnc2n1CCC2)C1CC1C1CCCCC1 (stereo not given) | 34 | -3.81
63 | Cc1nc(O)cc(CN2CCCCC2)n1 | -11 | 1.95
64 | O=C(NC[C@@]1(COc2ccccc2)C[C@@H](O)[C@@H](O)C1)C1CCCC1 | 15 | -1.77
65 | O=C(c1cc2cc(F)ccc2[nH]1)N1CC(O)(C(F)F)C1 | -7 | 0.95
66 | CC(CNC(=O)C1CCCc2cn[nH]c21)Oc1ccc(Cl)cc1 (stereo not given) | -7 | 1.03

Row | SMILES | % Inhibition [%] | Z score
67 | CCCc1nc(C)cc(N2CCN(c3cc(=O)[nH]c(N)n3)CC2)n1 | -1 | 0.13
68 | CCOc1cc2cc(c1)C(=O)N(C)CC(=O)N[C@@H]1CN(Cc3cnc(N)nc3)CC[C@@H]1OCc1cccc(c1)O2 | -23 | 2.88
69 | Cc1cccc2c1nc1n2[C@@H](CNC(=O)c2ccc(Cl)cc2)COC1 | -19 | 3.1
70 | O=C(Cn1nc2c(Oc3ccccc3)nc3ccccc3n2c1=O)NCc1ccc(F)cc1 | -16 | 2.31
71 | COc1ncccc1C(=O)NC[C@H]1CCCO1 | -3 | 0.35
72 | C=CCc1cc(CN2CCC3(CC2)N=C(N(C)C)NC3=O)ccc1OC(C)C | -4 | 0.78
73 | CS(=O)(=O)N1CCCN(Cc2cncn2C2CCCCC2)CC1 | 17 | -2.22
74 | Cc1cccc(N2C[C@H](C)N(C(=O)CCc3nc4ccccc4[nH]3)CC2=O)c1 | 7 | -1.36
75 | O=C(O)c1cccnc1NC[C@H]1CN(Cc2ccccc2)CC12CCOCC2 | -16 | 2.55
76 | O=C(c1cc(=O)[nH]c2ccccc12)N1CCCN([C@H]2COC[C@@H]2O)CC1 | 0 | 0.04
77 | O=C(C[C@H]1CCCO1)Nc1cc(Br)c(F)cc1Cl | 7 | -0.75
78 | CCc1nn(C)cc1NC(=O)NCC1CCC(S(C)(=O)=O)CC1 (stereo not given) | -9 | 1.69
79 | CCN(CC)C(=O)N1CCNC[C@H]1c1ccncc1 | 5 | -0.92
80 | CCCc1nnc(N(C)Cc2cc(C3CC3)on2)o1 | -13 | 1.87
81 | Clc1ccc(-c2nnc3c4nnn(Cc5ccccc5Cl)c4ncn23)cc1 | -7 | 0.98
82 | COc1ccc(CN2CCOC[C@H](Oc3ccccc3)C2)cn1 | 23 | -2.68
83 | CC(C)CC(=O)N1CCCN(c2ccc(NC(=O)c3cccs3)cc2C(=O)NCc2ccc(F)cc2)CC1 | 7 | -0.91
84 | Cn1nc(-c2ccc3c(c2)OCO3)ccc1=O | -2 | 0.31
85 | Cc1nc(C)n(CCCNS(=O)(=O)N2CCCCC2)n1 | -14 | 1.9
